Laboratory results as given in publication PMC3196593 (Journal of medicinal chemistry, 2011).

Experiments:
[1] = system: dextran sodium sulphate (DSS) model of Ulcerative Colitis; details: cited from earlier work
[2] = system: collagen induced arthritis (CIA) model of RA; details: cited from earlier work
[3] = system: Neutrophil Extracellular Traps (NETs); details: cited from earlier work
PAD4 = PAD4 (Homo sapiens, UniProt Q9UM07); experiment: PAD4 IC50 assay; format: biochemical
[4] = system: histone H3 citrullination in HL60 granulocytes; experiment: Histone deimination in HL60 granulocytes; details: calcium ionophore A23187, 30 min incubation with inhibitor
HL-60 cells = experiment: Cytotoxicity in combination with doxorubicin; format: cell-based, human; details: doxorubicin alone; cell viability at the maximum agent concentration tested

PAD4, sequence (Q9UM07 whole entry): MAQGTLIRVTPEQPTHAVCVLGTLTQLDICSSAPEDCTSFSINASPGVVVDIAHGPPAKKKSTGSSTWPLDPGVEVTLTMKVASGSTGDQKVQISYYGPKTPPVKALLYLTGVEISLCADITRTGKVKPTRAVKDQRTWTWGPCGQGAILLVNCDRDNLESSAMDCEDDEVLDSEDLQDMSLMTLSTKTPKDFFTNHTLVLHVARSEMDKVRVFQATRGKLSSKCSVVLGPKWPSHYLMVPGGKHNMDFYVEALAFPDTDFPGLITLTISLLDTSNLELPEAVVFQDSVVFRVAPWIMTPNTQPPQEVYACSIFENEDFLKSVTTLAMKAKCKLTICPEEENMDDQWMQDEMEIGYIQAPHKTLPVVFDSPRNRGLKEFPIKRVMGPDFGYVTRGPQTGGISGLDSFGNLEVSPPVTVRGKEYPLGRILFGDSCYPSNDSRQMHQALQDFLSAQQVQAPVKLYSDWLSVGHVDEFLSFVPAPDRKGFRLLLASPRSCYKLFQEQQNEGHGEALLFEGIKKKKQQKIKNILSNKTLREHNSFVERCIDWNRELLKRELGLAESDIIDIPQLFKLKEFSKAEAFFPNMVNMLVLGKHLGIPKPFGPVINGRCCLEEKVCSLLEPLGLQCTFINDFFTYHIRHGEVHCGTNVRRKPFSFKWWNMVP

**Q.** For `N=C(CCl)NCCC[C@H](NC(=O)c1ccccc1)C(N)=O.O=C(O)C(F)(F)F` [Compound 1, Cl-amidine], which disease severity [1] is on record?
**A.** decreases disease severity

**Q.** What about the disease severity [2] of the same molecule?
**A.** decreases disease severity

**Q.** And the NET formation [3]?
**A.** prevents NET formation

**Q.** Which “decrease in potency relative to F-amidine” value (PAD4) does the source give for `N=C(CF)NCCC[C@H](NC(=O)c1c[nH]cn1)C(N)=O.O=C(O)C(F)(F)F` [Compound 14, N^1-(4-carbonyl)imidazole-N^5-(2-fluoro-1-iminoethyl)-L-ornithine amide●TFA] here?
**A.** 10 fold

**Q.** For `N=C(CF)NCCC[C@H](NC(=O)c1ccccc1C(=O)O)C(N)=O.O=C(O)C(F)(F)F` [Compound 17, N-α-(2-carboxyl)benzoyl-N^5-(2-fluoro-1-iminoethyl)-L-ornithine amide], which “levels of deiminated histone H3” value [4] is on record?
**A.** decreased

**Q.** Which “% Survival” value (HL-60 cells) does the source give for `COc1cccc2c1C(=O)c1c(O)c3c(c(O)c1C2=O)C[C@@](O)(C(=O)CO)C[C@@H]3O[C@H]1C[C@H](N)[C@H](O)[C@H](C)O1` [Doxorubicin] here?
**A.** 12.0 ± 4.4%
